The source gives no read counts; variants with many changes may rest on few reads.
B1: OR4K15 (parent)
chain: GUUAACGGUCAUAGGCCAUGGAAACUAGGAGCACCAUUUCGCUGCCAGUGAAGAAAUGAACAAAGAAAAUCUGGGCCAGGCAGGCAUCAAAAGAAAUAGUCUUGCGCUCAACCAGAAAGUCUGUAAUCAUUUUAAGGGUA

Variants of: B1
Assay: self-cleavage, relative activity (ratio to wild type); higher = more cleavage; in vitro, sequencing; the parent is a self-cleaving ribozyme

| Variant | self-cleavage |
| --- | --- |
| A30G G83U C85U | 0.62 |
| U9C A24G A82U | 0.44 |
| A59G A64G A82G U100C U122C | 1.13 |
| A86U A90G U131C | 1.02 |
| G14A A18G A23G A47G U124C U127C A134G | 0.09 |
| A18G A64G A67C U131C | 1.04 |
| U43A A66G U130C | 1.7 |
| G7A C16U A64G U127C | 0.88 |
| G14A A59G A98U | 1.21 |
| A55G A59G A91G U130C | 0.57 |
| A51G A86G U124C | 0.66 |
| A27G A33G A90G | 0.26 |
| U2C U49A U87C U108A | 0.06 |
| U87C A94U U132C | 1.29 |
| A55G A67G A94U | 2.14 |
| U19C A116G U127A | 1.12 |
| A86U U127C U131C | 2.19 |
| U3C A22U A78G A111G | 0.03 |
| U19A U38A G50C | 1.35 |
| G7A U19C A27G | 1.15 |
| U49C U87C A110G | 0.11 |
| A27G A36G A86U A90G A118G | 0.93 |
| A27G A51G A110G U130C | 0.16 |
| A52G U57C A82G A111G | 0.03 |

| Variant | self-cleavage |
| --- | --- |
| A60G A89G A94G C112U | 0.04 |
| U9C U37C A60G A126G | 0.92 |
| G31C A90G A110U | 1.05 |
| A5G A51G A64U | 0.5 |
| U37C A89G A95G U103A A117G | 1.29 |
| U49C C61G U72A C88U A90G A98G U122A A129G | 0.01 |
| A59G A64G U108C | 0.02 |
| U38C A92G A135G | 2.18 |
| A11G A47C A51G | 1.57 |
| U9C U43C A68G U70A | 0.76 |
| A22U A78G U122C | 0.19 |
| A23G A52G U103A U108C U132C | 0.03 |
| A92G A118G U122C | 0.98 |
| A11G A56G A129U A140G | 0.85 |
| A51G A69G U72C A111G A129G | 0.01 |
| A117G U122C A135U U139A | 0.99 |
| G15A A55G C71U | 0.31 |
| U57A A95G U120C | 1.43 |
| A68G A118U U122C | 0.55 |
| U37C C46A A47C A62G U102A U122C | 0.72 |
| A22G A91G U122C | 0.87 |
| A24G A82G A134G | 0.53 |
| A18U A23G A30G A56G | 1.12 |
| A94U U102A A126U | 0.8 |

| Variant | self-cleavage |
| --- | --- |
| A64G A82U U132C | 0.11 |
| A13U G41A U57C A63G | 0.7 |
| U9C A89G A92G | 1.97 |
| U12A G75A A94G | 0.08 |
| U9A U87A U132C | 1.13 |
| U38C A55G A69G A78G A118G U139C A140G | 0.09 |
| U12C U100A U102C U132C | 1.44 |
| A36G A91G A126G | 1.05 |
| A23G U37C A117G U122C | 1.02 |
| U9A U100C U108C | 0.03 |
| G8A U19C A126G | 1.19 |
| U37C A52C A110G A135G | 0.09 |
| A47U A51G A94G U108C | 0.01 |
| U97A A116G U133C | 0.81 |
| A11G U70C A111G U124G | 0.02 |
| A5U U37C A117G U120C | 1.4 |
| A24G U38C A47U A114G | 0.79 |
| A18G U108A A114G | 0.01 |
| G29A U38C A67G G73U A114G | 0.06 |
| A62G A68G A114G A129U | 0.05 |
| A52U A86G A95G C113U | 0.03 |
| A27G A30G A33G A63G | 0.26 |
| U72C A86G U130C | 0.16 |
| U19G U133G U139C | 0.31 |

| Variant | self-cleavage |
| --- | --- |
| U2C U9A U12C A90G U139C | 1.28 |
| A18G U26C A36U U43C A95U U132C | 1.6 |
| G31U A67G A110G A117G | 0.21 |
| A5G A13U A23G U97A U132C | 1.27 |
| A23G A59G A118G U132C | 1.26 |
| A18G A22G U43C A89G A114U | 0.09 |
| C61U U87A A96G U132C | 2.08 |
| U37C A116G C128A | 0.45 |
| U26C A51G A66U U100C | 1 |
| A36G A94G A95G A96G U102A A114U U127C U131C U139C | 0 |
| A78U A82G C121A U122C | 0.12 |
| A51U A90G A95G | 2.19 |
| A5G G53A A55G A62U A63G | 0.3 |
| A23G U39C A66G | 1.38 |
| A66U U103C U108C U120A | 0 |
| A5U U9A A89G A90G U108C | 0.06 |
| A47G A118G A126G | 0.64 |
| A96G U108C A110G | 0.01 |
| U43C U72A G93A | 0.53 |
| U19C U87C A96G U100C A125G | 1.38 |
| A24U A62G U130C U132C | 1.19 |
| U37C U70C U132C | 0.89 |
| A24U A62G A110G | 0.21 |
| A36U A95G U120C | 1.18 |

| Variant | self-cleavage |
| --- | --- |
| A13U U39C U43A A59U A64U U87A G136A | 0.46 |
| U122C U127C U139C | 1.13 |
| G48A A82U U131C | 0.19 |
| U3C U37C A54G A69G | 1.37 |
| A24C A59G A66U A69G A82G A90G U102C A118G | 0.29 |
| A18G A59G A89C | 1.43 |
| U9C A78U A90G | 0.22 |
| U2C A89G A111U | 0.16 |
| U19A A62U U72C | 0.31 |
| U2C A27G U87C A135G | 1.64 |
| A5G A67G G75C A126G | 0.19 |
| A24U U43C A90G A92G | 1.98 |
| C32U U37C A51G U127C | 1.83 |
| A13G A27G A82U U100A | 0.12 |
| A59G U103C A111G | 0 |
| A54G A56G A117U U122C | 0.58 |
| A47G C105U U132C A135G | 0.08 |
| A54U C71A C88A U102C | 0.34 |
| A68G A96U U103C | 1 |
| A67U C76U U100C A111G U122A U124A | 0.02 |
| A51U A64G A66G A82U A90G | 0.09 |
| G15A A64G U108C U127A A140G | 0.03 |
| A33U C46A A86G A95U U139C | 0.97 |
| A5G A27G A62G A95G | 1.54 |

| Variant | self-cleavage |
| --- | --- |
| A36G A62G A96G | 1.32 |
| A33U A51G A56G | 1.49 |
| U49A A56G A78G | 0.32 |
| A5G A22G A47G A55U A94G | 1.05 |
| G7A A13G A47U A68G U87C U120C A126G | 0.31 |
| A64G G74A U102C | 0.31 |
| U9C A54U A86G A114G | 0.4 |
| U9C A11U U19G U97C U122A U124C | 0.59 |
| U37C A64U U87C A114G | 0.4 |
| U43C A64G A86G | 1.36 |
| C17U A23G A69G A110C | 0.23 |
| U12A A55G A110G | 0.31 |
| U37C U97A A111G U124C | 0 |
| A24G A68U A125G | 0.41 |
| A5U A47G A91G A126G | 0.24 |
| A23G A36G A78U | 0.59 |
| G8A A23G A30U A90G A116G | 0.15 |
| U38C A52G A66G | 1.09 |
| C10U C17A A62G A82U | 0.15 |
| A23G A47C A135G | 0.49 |
| A33G U43A U122G | 2.14 |
| A86G A90G U127C | 0.4 |
| A64G A67G U122A | 0.61 |
| U9C A33G A36G | 1.52 |

| Variant | self-cleavage |
| --- | --- |
| A22G A33G U132C | 1.12 |
| A64G A86G A91G | 0.05 |
| U9C A54G A91G | 0.85 |
| A23G U37C A64U C77U A94G | 1.18 |
| U49C A54G A60U A116G A140U | 0.68 |
| U26C A59G U102C U124C A125U | 1.45 |
| A36G A51U A91G | 0.85 |
| A47U A54G U132C | 0.57 |
| C6U A82U U87C A117G | 0.05 |
| A59G C61A A62G A92G | 0.98 |
| U12C A22U U37C | 0.45 |
| A60C A63G A135U | 0.88 |
| A54G A86G U139A | 0.46 |
| U9C A23G A54G U87C U103C A114G A126G | 0.06 |
| A22G C35U A91G | 0.9 |
| A11G A18G A54U | 1.11 |
| A24G A33U A60G A62G U72C G123A | 0.42 |
| U19C A52G G74A | 0.24 |
| A4G U70C A89G A92U U102C U108C | 0.02 |
| U37C U49C U122A U131C | 0.86 |
| A67C U100A A116G | 0.91 |
| G75A A82U A110G U132C | 0 |
| U9G A22G A23U A90G | 0.71 |

From the RNAGym collection of RNA variant scans (doi:10.7554/elife.90254)
